This note sets out measurements from paper doi:10.1101/2020.10.06.326603.

Details in all cases: remark: other sources report otherwise
Assay [1] deals with T1, Escherichia coli IscS (native cysteine desulfurase) (E. coli), P0A6B7.
T1 chain: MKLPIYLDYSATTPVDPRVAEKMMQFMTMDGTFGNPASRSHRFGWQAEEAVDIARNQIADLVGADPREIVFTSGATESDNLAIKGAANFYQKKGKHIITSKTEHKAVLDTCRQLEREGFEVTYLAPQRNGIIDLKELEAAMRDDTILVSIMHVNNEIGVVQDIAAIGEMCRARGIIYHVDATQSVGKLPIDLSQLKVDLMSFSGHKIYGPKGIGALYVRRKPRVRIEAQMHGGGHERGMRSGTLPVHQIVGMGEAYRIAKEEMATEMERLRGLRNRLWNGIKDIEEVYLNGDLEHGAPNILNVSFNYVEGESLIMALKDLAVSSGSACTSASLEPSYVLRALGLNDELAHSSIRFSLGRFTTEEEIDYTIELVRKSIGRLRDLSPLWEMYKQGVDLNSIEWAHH
As to the kind of experiment: SEC. On the technique in general: SEC sorts molecules by how far they enter the pores of the column.

For assay [2], the target named is T1, Escherichia coli IscS (native cysteine …). As to the kind of experiment: SEC.
For assay [3] the target is unchanged.

B1: Escherichia coli IscS (native cysteine desulfurase), P0A6B7 1-404 (enzyme)
chain: MKLPIYLDYSATTPVDPRVAEKMMQFMTMDGTFGNPASRSHRFGWQAEEAVDIARNQIADLVGADPREIVFTSGATESDNLAIKGAANFYQKKGKHIITSKTEHKAVLDTCRQLEREGFEVTYLAPQRNGIIDLKELEAAMRDDTILVSIMHVNNEIGVVQDIAAIGEMCRARGIIYHVDATQSVGKLPIDLSQLKVDLMSFSGHKIYGPKGIGALYVRRKPRVRIEAQMHGGGHERGMRSGTLPVHQIVGMGEAYRIAKEEMATEMERLRGLRNRLWNGIKDIEEVYLNGDLEHGAPNILNVSFNYVEGESLIMALKDLAVSSGSACTSASLEPSYVLRALGLNDELAHSSIRFSLGRFTTEEEIDYTIELVRKSIGRLRDLSPLWEMYKQGVDLNSIEWAHH
As a reminder, the stoichiometry N is the number of molecules, sites or subunits per partner or assembly. Broadly, the Kd is the free concentration of one partner at which half of the binding sites on the other are occupied at equilibrium, for simple one-to-one binding. Read a low Kd as a tighter complex. As for B1, the stoichiometry N in assay [1] and in assay [2] was 2 throughout. Besides, the Kd in assay [3] was 8 nM.
